Experimental findings from the RNAGym collection of RNA variant scans (doi:10.1073/pnas.2313332121) are described below.

Variants at the floor of the assay are shown more often than the library holds them.

To fix the notation:
B1: TPR 5TU (parent)
chain: GGAUCUUCUCGAUCUAACAAAAAAGACAAAUCUGCCACAAAGCUUGAGAGCAUCUUCGGAUGCAGAGGCGGCAGCCUUCGGUGGCGCGAUAGCGCCAACGUUCUCAACUAUGACACGCAAAACGCGUGCUCCGUUGAAUGGAGUUUAUCAUG

This data set covers variants of B1. Briefly: polymerase ribozyme fitness, log enrichment relative to wild type (log ratio); higher = more active; in vitro selection for triplet polymerase activity. In short, it runs like this: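 Frozen incubation at −7 °C formed the core of a single, triplicate in vitro selection round applied to PCR-built, transcribed mutant libraries of each subunit of a heterodimeric triplet polymerase ribozyme. Extended constructs were gel-excised, captured with streptavidin beads and amplified by RT-PCR, and input and output libraries were Illumina-sequenced with a filter of ≥10 input reads and ≥1 read per output. Fitness is the logarithm of genotype enrichment relative to wild-type enrichment, with inverse-variance-weighted replicate averaging, and the logarithm is base 2.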
As to GGAUCUUCUCGAUCUAACAAAAAAGACAAUUCUGCCACAAAGCUUGAGAGCAUCUUCGGAUGCAGAGGGGGCAGCCUUCGGUGGCGCGAUAGGGCAAACGUUCUCAACUAUGACACGCAAAACGCGUGCUCCGUUGAAUGGAGUUUAUCAUG, the “polymerase ribozyme fitness (log ratio)” value is ≤ -4.2. As for GGAUCUUCUCGAUCUAACAAAAAAGACAAUUCUGCCACAAAGCUUGAGAGCAUCUUCGGAUGCAGAGGCGGCAGCCUUCGGUGGCGCGAUAGCGCCAACGUUCUCAACUAUGACACGCAAAACGCGUGCUCCGUUGUUUGGACUUUUUCAUG, the “polymerase ribozyme fitness (log ratio)” value was ≤ -4.2. To GGAUCUUCUCGAUCUAACAAAAAAGACAAUUCUGCCAUAAAGCUUGAGAGCAUCUUCGGAUGCAGAGGCGGCAGUCUUCGGUGGCGCGAUCGUGCCAGCGUUCUCAACUAUGACACGCAAAACGCGUGCUCCGUUGAAUGGCGUUUAUCAUG belongs ≤ -4.2; to GGAUCUUCUCGAUCUAACAAAAAAGACAAUUCUGCCACAAAGCUUGAGAGCAUCUUCGGAUGCAGAGGGGGCAGCCUUAGGUGGCGGGAUAGCGCCAACGUUCUCAACUAUGACACGCAAAACGCAUGCUCCGUUGAAUCGAGUUUAUCAUG, ≤ -4.2; to GGAUCUUCUCGAUCUAACAAAAAAGACAAUUUUGCCACAAAGCUUGAGAGCAUCUUCGGAUGCAGAGGCGGCAGCCUUCGGUGGCGCGAUAGCGCCAACGUUCUCAACUAUGACUCGCAAAACGCGUGCUCCGUUGAAUGGACUUUAUCAUG, ≤ -4.2. With GGAUCUUCUCGAUCUAACAAAAAAGACAAUUCUGCCACAAAGCUUGAGAGCAUCUUCGGGUGCAGAGGCGGCAGCCUUCAGUGGCGCGAUAGCGCUAACGUUCUCAACUAUGACACGCAAAACGCGUGCUCCGUUGAAUGGAAUUUAUCAUG the figure was ≤ -4.2; with GGAUCUUCUCGAUCUAACAAAAAAGACAAUUCUGCCACAAAGCUUGAGAGCAUCUUCGGAUGCAGAGGCGGCAGGCUUCGGUGUCGCGAUAGCGCCAACGUUGUCAACUAUGACACGCAAAACCCGUGCUCCGUUGAAUGGAGUUUAUCAUG, ≤ -4.2; with GGAUCUUCUCGAUCUAACAAAAAAGACAAUUCUGCCACAAAGCUUGAGAGUAUCUUCGGAUCCAGAGGCGGCAGCCUUCGGGGGCGCGAUAGCGCCAACGUUCUCAACUAUGACACGCAAAACGCGUGCUCCUUUGAAUGGAGUUUAUCAUG, ≤ -4.2. With GGAUCUUCUCGAUCUAACAAAAAAGACAAUUCUGCCACAAAUCUUGAGAGCAUCUUCGGAUGCAAAGGCGGCAGCCUUCGGUGGCUCGAUAGCGCCAACGUUCGCAACUAUGACACGCAAAACGCGUGCUCCGUUGAAUGGAGUUUAUCAUG the figure was ≤ -4.2. Regarding GGAUCUUCUCGAUCUAACAAAAAAGACAAUUCUGCUACAAAGCUUGAGAGCAUCUUCGGAUGCAGAGGCGGCAGCCUUCGGGGGCGCCAUAGCGCUUACGUUCACAACUGUGACACGCAAAACGCUUGCUCCGUUUAAUGGAGUUUAUCAUG, the “polymerase ribozyme fitness (log ratio)” value was ≤ -4.2. With GGAUCUUCUCGAUCUAACAAAAAAGACAAUUCUGCCACAAAGCUUGAGAGCAUCUUCGGAUGCAGAGGCGGCAGCCUUCGGUGGGGCGAUAGCGACAACGUUCUCAACUAUGACACGCAAAACGCGUGCUCCGUUGAAUGGAGUUUAUCUUG the figure was ≤ -4.2. In the case of GGAUCUUCUCGAUCUAACAAAAAAGACAAUUCUGCCACAAAGCUUGAGAGCAUCUUCGGAUGCAGAGGCGGCAGCCUUCGGUGGGGCGAUAGCGCCAACGUUCUCAACUAUGACACGCAAAACGCGUGCUCCGUUGAAUGGAGUUUAUCAUG, the “polymerase ribozyme fitness (log ratio)” value was ≤ -4.2. For GGAUCUUCUCGAUCUAACAAAAAAGACAAUUCUGCCACAAAGCUUGAGAGCAUCUUCGGAUGCAGAGGCGGCAGCCUUCGGUGGAGCGAUAGCGCCAACGUUCUCAACUAUGACACGCAAAACGCGUGCUCCGUUGAAUGGAGUUUAUCAUG, the “polymerase ribozyme fitness (log ratio)” value was ≤ -4.2. To GGAUCUUCUCGAUCUAACAAAAAAGACAAUUCUGCCACAAAGCUUGAGAGCAUCUUCGGAUGCAGAGGCGGCAGCCUUCGGUGGCGCGAUCGCGUCACCGUUCUCAACUAGGACACUCAAAACGCGUGCUCCGUUGAAUGGAGUUUAUCAUG belongs ≤ -4.2; to GGAUCUUCUCGAUCUAACAAAAAAGACAAUUCUGCCACAAAGCUUGAGAGCAUCUUAGGAUGCAGAGACGGCAGCCUUCGGUGGCGCGAUAGCGCCAACGUUCUCAAGUAUGACACGCAAAACGCGUGCUCCGUUGAAUGGAGUUUAUCAUG, ≤ -4.2; to GGAUCUUCUCGAUCUAACAAAAAAGACAAUUCUGCCACAAAGCUUGAGAGCAUCUUCGGAUGCAGUGGCGGCAGCCUUCGGUGGCGCGAUAGCGCCAACGUUCUCAACUAUGACACGCAAAACGCGUGCUCCGUUGAUUGGAGUUUAUCAUG, ≤ -4.2. To GGAUCUUCUCGAUCUAACAAAAAAGACAAUUCUGUCACAAUACUUGAGAGCAUCUUCGGAUGCAGAGGCGGCAGCCUUCGGUGGCGCGAUAGCCCCAACGUUCUCAACUAUGACACGCAAAACGCGUGCUCCGCUGAAUGGAGUUUAUCAUG belongs ≤ -4.2. With GGAUCUUCUCGAUCUAACAAAAAAGACAAUUCUGCCACAAAGCUUGAGAGCAUCUUCGGAUGCAGAGGCGGCAGCCUUCGGUGGCGCGAUAGCGCCAACGUUGUCGACUAUGACACGCAAAACGCGUGCUCCGUUUAAUGGAGUUUAUCAUG the figure was ≤ -4.2; with GGAUCUUCUCGAUCUAACAAAAAAGACAAUUCUGCCACAAAGCUUUAGAGCAACUUUGGAUGCAGAGGGGGCAGCCUUCGAUGGCGCGAUAGCGUCAACGUUCUCAACUAUGACACGCAAAACGCGUGCUCCGUUGAAUGGAGAUUAUCAUG, ≤ -4.2.
